To fix the notation:
B1: TEV protease; numbered along this chain (parent)
chain: MGESLFKGPRDYNPISSSICHLTNESDGHTTSLYGIGFGPFIITNKHLFRRNNGTLVVQSLHGVFKVKDTTTLQQHLVDGRDMIIIRMPKDFPPFPQKLKFREPQREERICLVTTNFQTKSMSSMVSDTSCTFPSGDGIFWKHWIQTKDGQCGSPLVSTRDGFIVGIHSASNFTNTNNYFTSVPKNFMELLTNQEAQQWVSGWRLNADSVLWGGHKVFMVKPEEPFQPVKEATQL

Variants of B1 are the subject of the test. In words: raw area under fraction-flipped curve 0-4 h after induction (AUC4h, not background-subtracted), DNA-recorder readout of cleavage of the substrate (dimensionless); higher = more cleavage of the substrate by the protease variant. Particulars: temperature: 34 °C; time window: 0-4 h after rhamnose induction.

Results on ten variants are retold here after the supplement of paper PMC12217912.

Some of the results follow. The full chains were built here from the parent and the listed change. Values near 0.05 are background.
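Also: Bxb1 expression induced with 0.2% (w/v) L-rhamnose at OD600 near 0.5, cultures sampled hourly, flipped fraction per protease–substrate barcode pair counted by paired-end Illumina sequencing.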

As for MGESLFKGPRDYNPISSSICHLTNESDGHTTSLYGIGFGPFIITNKHLFRRNNGTLVVQSLHGVFKVKDTTTLQQHLVDGRDMIIIRMPKDFPFFPQKLKFREPQREERICLVTTNFQTKSMSSMVSDTSCTFPSGDGIFWKHWIQTKDGQCGSPLVSTRDGFIVGIHSASNFTNTNNYFTSVPKNFMELLTNQEAQQWVSGWRLNADSVLWGGHKVFMVKPEEPFQPVKEATQL [P94F], the “area with substrate ECLYFQS” value worked out at 0.103, the “area with substrate EDLYFQS” value amounted to 0.121, the “area with substrate EELYFQS” value was determined as 0.0758 and the “area with substrate EHLYFQS” value was determined as 0.0932. Besides, the “area with substrate EILYFQS” value came out at 0.0917, the “area with substrate ELLYFQS” value came to 0.0854, the “area with substrate EQLYFQS” value stood at 0.128 and the “area with substrate ESLYFQS” value came out at 0.0976. For the same variant, the “area with substrate EVLYFQS” value turned out to be 0.096.

With MGESLFKGPRDYNPISSSICHLTNESDGHTTSLYGIGFGPFIITNKHLFRRNNGTLVVQSLHGVFKVKDTTTLQQHLVDGRDMIIIRMPKDFPSFPQKLKFREPQREERICLVTTNFQTKSMSSMVSDTSCTFPSGDGIFWKHWIQTKDGQCGSPLVSTRDGFIVGIHSASNFTNTNNYFTSVPKNFMELLTNQEAQQWVSGWRLNADSVLWGGHKVFMVKPEEPFQPVKEATQL [P94S], the “area with substrate ECLYFQS” value was found to be 0.0621, the “area with substrate EELYFQS” value came to 0.132, the “area with substrate EFLYFQS” value worked out at 0.1 and the “area with substrate EGLYFQS” value is 0.0941. The “area with substrate EILYFQS” value is 0.0694, the “area with substrate EKLYFQS” value amounted to 0.106, the “area with substrate ELLYFQS” value was determined as 0.0912 and the “area with substrate EMLYFQS” value was found to be 0.107. Further, the “area with substrate EQLYFQS” value turned out to be 0.0536, the “area with substrate ESLYFQS” value was determined as 0.14, the “area with substrate EVLYFQS” value turned out to be 0.116 and the “area with substrate EWLYFQS” value is 0.112.

Take MGESLFKGPRDYNPISSSICHLTNESDGHTTSLYGIGFGPFIITNKHLFRRNNGTLVVQSLHGVFKVKDTTTLQQHLVDGRDMIIIRMPKDFPPFPQKLKFREPQREEVICLVTTNFQTKSMSSMVSDTSCTFPSGDGIFWKHWIQTKDGQCGSPLVSTRDGFIVGIHSASNFTNTNNYFTSVPKNFMELLTNQEAQQWVSGWRLNADSVLWGGHKVFMVKPEEPFQPVKEATQL [R109V]: the “area with substrate ECLYFQS” value stood at 0.0947, the “area with substrate EELYFQS” value is 0.137, the “area with substrate EGLYFQS” value is 0.061 and the “area with substrate EKLYFQS” value stood at 0.0849. Further, the “area with substrate ELLYFQS” value stood at 0.0486, the “area with substrate EPLYFQS” value turned out to be 0.0998, the “area with substrate EQLYFQS” value is 0.11 and the “area with substrate ERLYFQS” value stood at 0.0909. Besides, the “area with substrate ESLYFQS” value came to 0.0846, the “area with substrate ETLYFQS” value stood at 0.108 and the “area with substrate EVLYFQS” value worked out at 0.0901.

As to MGESLFKGPRDYNPISSSICHLTNESDGHTTSLYGIGFGPFIITNKHLFRRNNGTLVVQSLHGVFKVKDTTTLQQHLVDGRDMIIIRMPKDFPPFPQKLKCREPQREERICLVTTNFQTKSMSSMVSDTSCTFPSGDGIFWKHWIQTKDGQCGSPLVSTRDGFIVGIHSASNFTNTNNYFTSVPKNFMELLTNQEAQQWVSGWRLNADSVLWGGHKVFMVKPEEPFQPVKEATQL [F101C], the “area with substrate ECLYFQS” value stood at 0.0535, the “area with substrate EDLYFQS” value turned out to be 0.0749, the “area with substrate EELYFQS” value was 0.0011 and the “area with substrate EFLYFQS” value worked out at 0.07. For the same variant, the “area with substrate EGLYFQS” value stood at 0.0826, the “area with substrate EHLYFQS” value stood at 0.0855, the “area with substrate EILYFQS” value was determined as 0.0757 and the “area with substrate EKLYFQS” value amounted to 0.0758. The “area with substrate ELLYFQS” value was 0.0796, the “area with substrate EMLYFQS” value was 0.0862, the “area with substrate ERLYFQS” value is 0.086 and the “area with substrate ESLYFQS” value is 0.0698. The “area with substrate ETLYFQS” value worked out at 0.0904, the “area with substrate EVLYFQS” value was 0.0829, the “area with substrate EWLYFQS” value came to 0.0635 and the “area with substrate EYLYFQS” value came to 0.0719.

Consider MGESLFKGPRDYNPISSSICHLTNESDGHTTSLYGIGFGPFIITNKHLFRRNNGTLVVQSLHGVFKVKDTTTLQQHLVDGRDMIIIRMPKDFPPFPQDLKFREPQREERICLVTTNFQTKSMSSMVSDTSCTFPSGDGIFWKHWIQTKDGQCGSPLVSTRDGFIVGIHSASNFTNTNNYFTSVPKNFMELLTNQEAQQWVSGWRLNADSVLWGGHKVFMVKPEEPFQPVKEATQL [K98D], for which the “area with substrate ECLYFQS” value is 0.127, the “area with substrate EDLYFQS” value came out at 0.109, the “area with substrate EGLYFQS” value was found to be 0.114 and the “area with substrate EILYFQS” value came out at 0.1. Also, the “area with substrate EMLYFQS” value turned out to be 0.11, the “area with substrate EQLYFQS” value is 0.121, the “area with substrate ERLYFQS” value was found to be 0.145 and the “area with substrate EVLYFQS” value was determined as 0.113. Moreover, the “area with substrate EWLYFQS” value was found to be 0.144.

As for MGESLFKGPRDYNPISSSICHLTNESDGHTTSLYGIGFGPFIITNKHLFRRNNGTLVVQSLHGVFKVKDTTTLQQHLVDGRDMIIIRMPKDFPPFPQKGKFREPQREERICLVTTNFQTKSMSSMVSDTSCTFPSGDGIFWKHWIQTKDGQCGSPLVSTRDGFIVGIHSASNFTNTNNYFTSVPKNFMELLTNQEAQQWVSGWRLNADSVLWGGHKVFMVKPEEPFQPVKEATQL [L99G], the “area with substrate ECLYFQS” value came out at 0.101, the “area with substrate EDLYFQS” value came out at 0.106, the “area with substrate EELYFQS” value worked out at 0.109 and the “area with substrate EMLYFQS” value is 0.115. The “area with substrate EQLYFQS” value was 0.0971, the “area with substrate ERLYFQS” value turned out to be 0.0801, the “area with substrate ESLYFQS” value was 0.0615 and the “area with substrate EVLYFQS” value was 0.0717.

Turning to MGESLFKGPRDYNPISSSICHLTNESDGHTTSLYGIGFGPFIITNKHLFRRNNGTLVVQSLHGVFKVKDTTTLQQHLVDGRDMIIIRMPKDFPPFPQKFKFREPQREERICLVTTNFQTKSMSSMVSDTSCTFPSGDGIFWKHWIQTKDGQCGSPLVSTRDGFIVGIHSASNFTNTNNYFTSVPKNFMELLTNQEAQQWVSGWRLNADSVLWGGHKVFMVKPEEPFQPVKEATQL [L99F], the “area with substrate ECLYFQS” value is 0.0508, the “area with substrate EDLYFQS” value was 0.102, the “area with substrate EILYFQS” value amounted to 0.0835 and the “area with substrate EQLYFQS” value was 0.115. Also, the “area with substrate ERLYFQS” value amounted to 0.0852, the “area with substrate ESLYFQS” value is 0.0682, the “area with substrate ETLYFQS” value is 0.122 and the “area with substrate EVLYFQS” value stood at 0.0979.

Turning to MGESLFKGPRDYNPISSSICHLTNESDGHTTSLYGIGFGPFIITNKHLFRRNNGTLVVQSLHGVFKVKDTTTLQQHLVDGRDMIIIRMPKDFPPDPQKLKFREPQREERICLVTTNFQTKSMSSMVSDTSCTFPSGDGIFWKHWIQTKDGQCGSPLVSTRDGFIVGIHSASNFTNTNNYFTSVPKNFMELLTNQEAQQWVSGWRLNADSVLWGGHKVFMVKPEEPFQPVKEATQL [F95D], the “area with substrate ECLYFQS” value was 0.0303, the “area with substrate EDLYFQS” value is 0.0559, the “area with substrate EFLYFQS” value worked out at 0.0539 and the “area with substrate EMLYFQS” value is 0.057. Further, the “area with substrate ETLYFQS” value was 0.0447.

Take MGESLFKGPRDYNPISSSICHLTNESDGHTTSLYGIGFGPFIITNKHLFRRNNGTLVVQSLHGVFKVKDTTTLQQHLVDGRDMIIIRMPKDFPPFPQKLKFREPQREERICLVITNFQTKSMSSMVSDTSCTFPSGDGIFWKHWIQTKDGQCGSPLVSTRDGFIVGIHSASNFTNTNNYFTSVPKNFMELLTNQEAQQWVSGWRLNADSVLWGGHKVFMVKPEEPFQPVKEATQL [T114I]: the “area with substrate ECLYFQS” value was found to be 0.0901, the “area with substrate EELYFQS” value amounted to 0.0953, the “area with substrate EFLYFQS” value came out at 0.0868 and the “area with substrate EKLYFQS” value was 0.0987. Besides, the “area with substrate ELLYFQS” value was determined as 0.0941, the “area with substrate EMLYFQS” value is 0.117, the “area with substrate EQLYFQS” value turned out to be 0.117 and the “area with substrate ERLYFQS” value turned out to be 0.0956. In addition, the “area with substrate ESLYFQS” value worked out at 0.0959, the “area with substrate EVLYFQS” value stood at 0.0869 and the “area with substrate EYLYFQS” value came to 0.0896.

MGESLFKGPRDYNPISSSICHLTNESDGHTTSLYGIGFGPFIITNKHLFRRNNGTLVVQSLHGVFKVKDTTTLQQHLVDGRDMIIIRMPKDFPPFPQKLKFPEPQREERICLVTTNFQTKSMSSMVSDTSCTFPSGDGIFWKHWIQTKDGQCGSPLVSTRDGFIVGIHSASNFTNTNNYFTSVPKNFMELLTNQEAQQWVSGWRLNADSVLWGGHKVFMVKPEEPFQPVKEATQL [R102P]: the “area with substrate ECLYFQS” value came out at 0.0371, the “area with substrate EELYFQS” value came to 0.0499, the “area with substrate EGLYFQS” value was 0.0495 and the “area with substrate EHLYFQS” value turned out to be 0.0509. In addition, the “area with substrate EILYFQS” value was 0.0438, the “area with substrate EKLYFQS” value was found to be 0.0241, the “area with substrate ELLYFQS” value turned out to be 0.0459 and the “area with substrate EPLYFQS” value is 0.0335. In addition, the “area with substrate EQLYFQS” value turned out to be 0.0369, the “area with substrate ERLYFQS” value worked out at 0.0726, the “area with substrate ESLYFQS” value is 0.0366 and the “area with substrate EVLYFQS” value worked out at 0.0332. Further, the “area with substrate EYLYFQS” value worked out at 0.0479.
